Results as given in PubChem BioAssay AID1347120 (National Center for Advancing Translational Sciences (NCATS), 2019).
About 930 (0.24%) of roughly 390,000 compounds were called active. This list was built around the results that the source calls inconclusive (neither active nor inactive); the mix of calls is not that of the screen. Calls come from the whole dose curve; as a rule, active = well fitted activation curve with a large enough effect; inconclusive = small, poorly fitted or top-dose-only effect; inactive = no such curve, though single readings can be large or run the other way. A potency beside an inconclusive call is a rough fit, not a confirmed value.

Assay: qHTS for Suppressors of FUS Proteinopathy: Primary screen using FUS-linked yeast assay; note: nearly all actives have a fitted effect of over 55% in size
Details: S. cerevisiae FUS-expressing, OD600, 24 h; Potency: growth rescue; series mostly up to 76.6 µM
Procedure, shortened: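 Cultures pregrown in 2.5% raffinose medium are shifted to minimal medium containing 2% galactose to express toxic FUS. Compounds are tested at several concentrations. After 24hr at 30C, growth is quantified at 600 nm absorbance.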
Potency is the fitted concentration of half-maximal effect; tags give direction and shape of the fitted curve.

With `Cc1nn(C2CCOC(C)(C)C2)c2c1C(c1ccc(OC(C)C)cc1)SCC(=O)N2` (configuration not stated) as the compound, how does the Potency read?
Its Potency is inconclusive: 50.1 µM [activator, single point].

Which Potency does the source give for `O=c1[nH]c2ccccc2n1C1CCN(C(c2cccs2)c2nnnn2Cc2ccccc2)CC1` (configuration not stated) here?
Its Potency is inconclusive: 31.6 µM [activator, single point].

Which Potency does the source give for `COc1ccc(CN2C(=O)NC(=O)/C(=C\c3ccco3)C2=O)cc1` here?
The Potency was inconclusive: 31.6 µM [activator, partial curve, poor fit].

For `O=C1NC(=O)C(CCc2ccncc2)(Cc2cccc(Cl)c2Cl)C(=O)N1c1ccc(Br)cc1` (configuration not stated), which Potency is on record?
Its Potency is inconclusive: 31.6 µM [activator, single point].

For `OCCN1C2CCC1CC(O)(c1ccc(F)cc1)C2` (configuration not stated), which Potency is on record?
Its Potency is “inactive”.

For `COc1ccc(-n2nnnc2C(c2cc3ccccc3o2)N2CCC(n3c(=O)[nH]c4ccccc43)CC2)cc1` (configuration not stated), which Potency is on record?
Its Potency is inconclusive: 28.2 µM [activator, partial curve, poor fit].

For `COc1ccc2c(c1)CC1(CN2C)C(=O)NC(=O)N(CCc2ccccc2)C1=O` (configuration not stated), which Potency is on record?
The Potency was inconclusive: 31.6 µM [activator, partial curve].

With `O=C(CCc1ccccc1)N1Cc2cc(N3CCCCC3)ccc2-n2nncc2C1` as the compound, how does the Potency read?
Its Potency is inconclusive: 20 µM [activator, partial curve, poor fit].

For `Cc1cccc(N2CCc3c2nc2ccccc2c3N)c1`, which Potency is on record?
Its Potency is “inactive”.

With `O=c1[nH]c(=O)n(CCC2=CCCCC2)c(O)c1C=NCCCn1ccnc1` as the compound, how does the Potency read?
Its Potency is active: 12.6 µM.

Which Potency does the source give for `C=C(C=O)CC1CC(O)[C@]2(C)OC3C[C@@H]4OC5C[C@]6(C)O[C@]7(C)CCC8OC9C[C@]%10(C)OC(/C(C)=C\CO)C(O)CC%10OC9CC(C)C8OC7CC6O[C@]5(C)C/C=C\C4OC3CC2O1` (some centres not stated) here?
The Potency was inconclusive: 15.8 µM [activator, partial curve, poor fit].

For `COc1ccc(-n2c(O)c(/C(C)=N/Nc3ccccc3)c(=O)[nH]c2=O)cc1`, which Potency is on record?
Its Potency is inconclusive: 31.6 µM [activator, single point].

For `COC(=O)C1=C(c2ccc(OC(F)(F)F)cc2)C[C@@H]2CC[C@H]1N2C(=O)NCc1ccc(F)cc1`, which Potency is on record?
The Potency was “inactive”.

Which Potency does the source give for `O=C1NC(=O)C(=Cc2ccccc2Oc2ccc(F)cc2)C(=O)N1` here?
Its Potency is “inactive”.

For `COC(=O)C1=C(c2ccc(OC(F)(F)F)cc2)C[C@@H]2CC[C@H]1N2C(=O)N1CCCCC1`, which Potency is on record?
Its Potency is inconclusive: 50.1 µM [activator, single point].

With `O=c1c2ccccc2nc(-c2ccccc2)n1-n1cccc1` as the compound, how does the Potency read?
Its Potency is “inactive”.

With `Cc1nn(Cc2ccccc2)c(C)c1C(=O)OCC(=O)Nc1cc(S(C)(=O)=O)ccc1Cl` as the compound, how does the Potency read?
The Potency was inconclusive: 12.6 µM [activator, partial curve, poor fit].

For `COC(=O)C1=C(c2cccc(OCc3ccccc3)c2)C[C@@H]2CC[C@H]1N2C(=O)NCCCc1ccccc1`, which Potency is on record?
The Potency was inconclusive: 15.8 µM [activator, partial curve].

For `CC(=O)Nc1ccc(C(c2c(O)c3ccccc3oc2=O)c2c(C)n(C)n(-c3ccccc3)c2=O)cc1` (configuration not stated), which Potency is on record?
The Potency was inconclusive: 31.6 µM [activator, single point].

With `COC(=O)C1C(O)C(C)C(O)C(C)/C=C\C=C(/C)C(=O)Nc2c(C)c(OC(C)=O)c3c(c2O)C(=O)C(C)=C2OCOC(=C23)/C(C)=C/C(C)(O)C(O)C(C)C1O` (configuration not stated) as the compound, how does the Potency read?
The Potency was inconclusive: 20 µM [activator, partial curve, poor fit].

Which Potency does the source give for `C/C(CC(c1ccccc1)c1c(O)c2ccccc2oc1=O)=N\Nc1ccc([N+](=O)[O-])cc1[N+](=O)[O-]` (configuration not stated) here?
Its Potency is inconclusive: 31.6 µM [activator, single point].

With `CCCCCCN=C(CC)c1c(O)n(CCCC)c(=O)[nH]c1=O` as the compound, how does the Potency read?
Its Potency is inconclusive: 35.5 µM [activator, single point].

For `CCOC(=O)c1c(C)n(Cc2ccccc2)c2ccc(OCC(O)CN3C(=O)CNC3=O)cc12` (configuration not stated), which Potency is on record?
The Potency was “inactive”.

Which Potency does the source give for `Cc1cc(=O)oc2c(C)c(OCC(=O)N3CCN(Cc4ccccc4)CC3)ccc12` here?
Its Potency is “inactive”.

With `C/C(=N\Nc1ccccc1)c1c(O)n(Cc2ccccc2)c(=O)[nH]c1=O` as the compound, how does the Potency read?
The Potency was inconclusive: 39.8 µM [activator, single point].

For `CC(=O)Nc1ccccc1C(=O)OCC(=O)c1ccc2ccccc2c1`, which Potency is on record?
The Potency was “inactive”.

For `COC(=O)C1=C(c2ccc(OCc3ccccc3)cc2)C[C@@H]2CC[C@H]1N2C(=O)NCc1ccc([N+](=O)[O-])cc1`, which Potency is on record?
The Potency was inconclusive: 50.1 µM [activator, single point].

With `COc1ccc(OC)c(NC(=O)Cn2cc(C(=O)c3ccccc3)c3ccccc32)c1` as the compound, how does the Potency read?
Its Potency is inconclusive: 31.6 µM [activator, single point].

For `COc1ccc(-c2nc(CN3C(=O)CN=C(c4ccccc4)c4cc(Cl)ccc43)c(C)o2)cc1`, which Potency is on record?
Its Potency is inconclusive: 31.6 µM [activator, single point].

Which Potency does the source give for `CCOc1ccccc1N1C(=O)NC(=O)/C(=C/c2ccc3c4c(cccc24)CC3)C1=O` here?
Its Potency is “inactive”.

With `CCCCn1c(O)c(/C(CC)=N/N2CCCCC2c2cccnc2)c(=O)[nH]c1=S` (configuration not stated) as the compound, how does the Potency read?
Its Potency is inconclusive: 50.1 µM [activator, single point].

Which Potency does the source give for `Nc1c(C(=O)NCCc2ccccc2)c2nc3ccccc3nc2n1CCN1CCOCC1` here?
The Potency was inconclusive: 44.7 µM [activator, single point].

Which Potency does the source give for `CCc1ccccc1NC(=O)c1cccn(Cc2ccccc2F)c1=O` here?
Its Potency is “inactive”.

For `COC(=O)C1=C(c2ccc(F)cc2OCc2ccccc2)C[C@@H]2CC[C@H]1N2C(=O)NCc1ccc(Cl)cc1`, which Potency is on record?
The Potency was inconclusive: 25.1 µM [activator, partial curve].

With `COC(=O)C1=C(c2ccc(-c3ccccc3)c(F)c2)C[C@@H]2CC[C@H]1N2C(=O)NCc1ccc(F)cc1` as the compound, how does the Potency read?
The Potency was inconclusive: 28.2 µM [activator, partial curve].

With `Cc1cc(OCC(=O)NCC(O)c2ccccc2)c2c3c(c(=O)oc2c1)CCC3` (configuration not stated) as the compound, how does the Potency read?
The Potency was inconclusive: 3.98 µM [activator, full curve, poor fit].

For `O=C1NCN(c2ccccc2)C12CCN(C(c1cccc3ccccc13)c1nnnn1Cc1ccccc1)CC2` (configuration not stated), which Potency is on record?
Its Potency is inconclusive: 8.91 µM [activator, full curve, poor fit].
